Measurements: PMC4417169, “Significance of ligand interactions involving Hop2-Mnd1 and the RAD51 and DMC1 recombinases in homologous DNA repair and XX ovarian dysgenesis” (Nucleic Acids Research, 2015)
Results are given in words; binding and its absence hold for the method and conditions named. Some results given as binding are weak or reduced against the parent protein; the word gives no strength. For part of these data: Tags and fused reporters may be left off the sequences shown. Values belong to the molecule of their own block, whether it stands above or below them.

Chains of the proteins cited; added tags and fusions are not shown.
UniProt P0A7G6: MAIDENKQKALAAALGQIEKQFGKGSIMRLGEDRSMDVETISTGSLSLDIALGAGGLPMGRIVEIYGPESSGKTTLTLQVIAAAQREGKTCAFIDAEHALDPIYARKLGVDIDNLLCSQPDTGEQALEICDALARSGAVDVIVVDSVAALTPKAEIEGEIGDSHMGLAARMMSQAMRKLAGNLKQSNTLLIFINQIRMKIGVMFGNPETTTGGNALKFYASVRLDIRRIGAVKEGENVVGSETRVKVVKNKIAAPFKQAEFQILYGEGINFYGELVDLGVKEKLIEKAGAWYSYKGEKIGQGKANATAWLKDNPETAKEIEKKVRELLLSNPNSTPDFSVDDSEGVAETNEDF
UniProt P25454: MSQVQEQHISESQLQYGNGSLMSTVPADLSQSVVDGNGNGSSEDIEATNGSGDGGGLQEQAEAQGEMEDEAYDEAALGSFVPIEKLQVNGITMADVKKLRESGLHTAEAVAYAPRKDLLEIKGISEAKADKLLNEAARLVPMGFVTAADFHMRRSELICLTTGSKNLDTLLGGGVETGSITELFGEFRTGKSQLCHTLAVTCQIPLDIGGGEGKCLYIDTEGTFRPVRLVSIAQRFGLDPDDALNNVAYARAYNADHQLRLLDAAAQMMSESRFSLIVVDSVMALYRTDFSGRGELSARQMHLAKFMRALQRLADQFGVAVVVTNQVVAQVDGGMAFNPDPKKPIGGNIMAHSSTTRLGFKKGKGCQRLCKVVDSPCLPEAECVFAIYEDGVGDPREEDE

How the values were obtained:
[1] = target: T1, (His)6-Hop2-Mnd1 (mouse) (UniProt O35047+Q8K396); experiment: pull-down; Ni2+-NTA resin captures (His)6-Hop2-Mnd1 or (His)6-Mnd1 (5 uM) incubated with RAD51 (8 uM); buffer A (25 mM Tris-HCl pH 7.5, 10% glycerol, 0.5 mM EDTA, 0.01% Igepal, 10 mM imidazole), 50-250 mM KCl, with or without 2 mM MgCl2 and 2 mM ATP (or other nucleotides); 4 C; SDS-PAGE, Coomassie; both purified
T1 sequence 1: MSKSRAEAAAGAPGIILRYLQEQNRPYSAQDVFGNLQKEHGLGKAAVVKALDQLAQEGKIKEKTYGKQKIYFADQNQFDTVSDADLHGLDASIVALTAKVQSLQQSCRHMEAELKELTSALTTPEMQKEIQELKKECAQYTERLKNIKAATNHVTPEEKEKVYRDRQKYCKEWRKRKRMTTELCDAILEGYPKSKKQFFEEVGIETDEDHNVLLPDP
T1 sequence 2: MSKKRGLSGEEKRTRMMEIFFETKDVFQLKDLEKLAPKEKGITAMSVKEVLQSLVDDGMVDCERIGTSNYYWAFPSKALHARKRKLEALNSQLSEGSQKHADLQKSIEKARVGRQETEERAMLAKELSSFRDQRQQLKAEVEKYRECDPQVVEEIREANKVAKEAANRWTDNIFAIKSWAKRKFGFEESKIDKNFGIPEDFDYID

[2] = target: T2, Hop2-Mnd1 co-expressed in the yeast three-hybrid system (mouse) (UniProt O35047+Q8K396); experiment: two-hybrid; yeast three-hybrid: BD fusion and a third protein from pBridge, AD fusion from pGADT7, strain AH109; growth on Leu-Trp-His- and Leu-Trp-His-Ade- media
T2 sequence 1: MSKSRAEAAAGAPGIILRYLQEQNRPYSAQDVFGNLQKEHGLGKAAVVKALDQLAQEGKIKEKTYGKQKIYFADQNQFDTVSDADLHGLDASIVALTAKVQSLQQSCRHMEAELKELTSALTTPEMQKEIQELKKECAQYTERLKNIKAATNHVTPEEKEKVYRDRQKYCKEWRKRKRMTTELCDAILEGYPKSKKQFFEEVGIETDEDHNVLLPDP
T2 sequence 2: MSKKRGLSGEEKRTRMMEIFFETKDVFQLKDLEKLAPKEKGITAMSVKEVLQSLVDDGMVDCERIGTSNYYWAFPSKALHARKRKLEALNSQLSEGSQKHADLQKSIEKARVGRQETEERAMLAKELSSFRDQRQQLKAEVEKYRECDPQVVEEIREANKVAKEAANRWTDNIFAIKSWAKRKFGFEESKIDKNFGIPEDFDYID

[3] = target: T3, Hop2 (K193A/K195A/K196A)-Mnd1, yeast three-hybrid (mouse) (UniProt O35047+Q8K396); experiment: as above
T3 sequence 1: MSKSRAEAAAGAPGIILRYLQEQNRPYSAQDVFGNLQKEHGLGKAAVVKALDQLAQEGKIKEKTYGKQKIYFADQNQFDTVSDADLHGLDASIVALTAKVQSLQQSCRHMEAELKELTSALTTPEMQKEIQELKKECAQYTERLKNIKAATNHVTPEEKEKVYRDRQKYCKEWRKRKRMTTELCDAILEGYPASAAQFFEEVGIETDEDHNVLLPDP
T3 sequence 2: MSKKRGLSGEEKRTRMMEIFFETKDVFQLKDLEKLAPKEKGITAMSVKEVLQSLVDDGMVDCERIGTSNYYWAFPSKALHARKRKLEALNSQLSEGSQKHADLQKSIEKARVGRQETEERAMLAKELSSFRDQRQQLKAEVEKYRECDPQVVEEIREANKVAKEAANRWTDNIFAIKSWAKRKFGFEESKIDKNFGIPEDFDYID

[4] = target: T4, Hop2 (V212Q)-Mnd1, yeast three-hybrid (mouse) (UniProt O35047+Q8K396); experiment: as above
T4 sequence 1: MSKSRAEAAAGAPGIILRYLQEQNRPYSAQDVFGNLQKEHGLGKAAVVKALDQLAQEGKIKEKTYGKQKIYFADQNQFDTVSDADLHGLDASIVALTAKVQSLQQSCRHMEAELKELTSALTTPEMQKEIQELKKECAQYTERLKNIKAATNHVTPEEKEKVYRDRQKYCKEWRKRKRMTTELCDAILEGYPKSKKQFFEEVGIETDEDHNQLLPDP
T4 sequence 2: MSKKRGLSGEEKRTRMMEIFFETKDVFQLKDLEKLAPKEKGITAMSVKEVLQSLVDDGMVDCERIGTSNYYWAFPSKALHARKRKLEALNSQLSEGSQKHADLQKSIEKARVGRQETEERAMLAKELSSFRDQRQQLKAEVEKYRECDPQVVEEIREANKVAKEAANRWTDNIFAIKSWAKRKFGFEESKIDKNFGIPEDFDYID

[5] = target: T5, Hop2 (G203N)-Mnd1, yeast three-hybrid (mouse) (UniProt O35047+Q8K396); experiment: as above
T5 sequence 1: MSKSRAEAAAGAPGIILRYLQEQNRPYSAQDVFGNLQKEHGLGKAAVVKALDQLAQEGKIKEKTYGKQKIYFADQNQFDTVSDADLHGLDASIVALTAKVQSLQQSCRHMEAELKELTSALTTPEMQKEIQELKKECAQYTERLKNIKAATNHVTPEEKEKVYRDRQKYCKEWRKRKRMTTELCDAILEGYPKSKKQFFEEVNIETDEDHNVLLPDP
T5 sequence 2: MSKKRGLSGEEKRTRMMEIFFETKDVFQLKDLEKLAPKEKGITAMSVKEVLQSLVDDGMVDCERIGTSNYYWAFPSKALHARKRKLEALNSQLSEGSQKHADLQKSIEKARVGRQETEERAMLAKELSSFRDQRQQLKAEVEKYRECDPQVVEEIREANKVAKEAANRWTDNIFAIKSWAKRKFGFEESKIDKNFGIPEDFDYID

[6] = target: T6, Hop2 (yeast two-hybrid fusion) (mouse) (UniProt O35047); experiment: two-hybrid; yeast two-hybrid, pBridge (BD) and pGADT7 (AD) in strain AH109; growth on Leu-Trp-His- and Leu-Trp-His-Ade- media
T6 sequence: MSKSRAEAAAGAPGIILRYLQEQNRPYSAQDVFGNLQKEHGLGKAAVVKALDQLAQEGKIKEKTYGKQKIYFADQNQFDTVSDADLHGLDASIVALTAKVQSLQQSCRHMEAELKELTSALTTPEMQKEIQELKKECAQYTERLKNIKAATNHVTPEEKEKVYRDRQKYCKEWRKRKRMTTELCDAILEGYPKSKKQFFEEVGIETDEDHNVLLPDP

[7] = target: T7, Mnd1 (yeast two-hybrid fusion) (mouse) (UniProt Q8K396); experiment: as above
T7 sequence: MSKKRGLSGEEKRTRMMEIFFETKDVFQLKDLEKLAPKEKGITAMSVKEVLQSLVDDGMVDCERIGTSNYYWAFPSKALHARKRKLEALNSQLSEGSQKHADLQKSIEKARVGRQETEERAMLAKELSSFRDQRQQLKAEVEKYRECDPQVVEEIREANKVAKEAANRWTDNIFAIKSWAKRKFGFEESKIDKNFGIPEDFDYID

[8] = target: T8, Hop2-Mnd1 (F195A/I197Q/F201A), MBP-tagged (mouse) (UniProt O35047+Q8K396); experiment: pull-down; amylose resin captures MBP-tagged Hop2-Mnd1 or mutant incubated with RAD51 or DMC1; buffer A without imidazole; 4 C; SDS-PAGE, Coomassie; both purified
T8 sequence 1: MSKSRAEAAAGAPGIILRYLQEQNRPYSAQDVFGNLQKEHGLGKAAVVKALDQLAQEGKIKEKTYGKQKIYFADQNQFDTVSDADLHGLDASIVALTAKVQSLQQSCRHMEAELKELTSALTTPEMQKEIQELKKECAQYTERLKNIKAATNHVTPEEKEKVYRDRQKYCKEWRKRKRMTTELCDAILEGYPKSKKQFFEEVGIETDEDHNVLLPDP
T8 sequence 2: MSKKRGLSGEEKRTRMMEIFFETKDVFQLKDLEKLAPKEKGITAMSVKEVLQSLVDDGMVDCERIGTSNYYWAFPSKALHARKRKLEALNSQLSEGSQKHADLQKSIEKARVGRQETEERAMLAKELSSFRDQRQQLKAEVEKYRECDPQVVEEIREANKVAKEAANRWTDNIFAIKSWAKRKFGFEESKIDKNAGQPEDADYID

binding [1]: no binding
Molecule: E. coli RecA (from UniProt P0A7G6 1-353)

binding [2]: binds
binding [3]: binds
binding [4]: binds
binding [5]: binds
binding [6]: no binding
binding [7]: binds
Molecule: RAD51 (yeast two- and three-hybrid fusion) (from UniProt Q06609 1-339)

binding [1]: no binding
Molecule: S. cerevisiae Rad51 (from UniProt P25454 1-400)

binding [8]: no binding
B1: human RAD51 (natural protein, UniProt Q06609 1-339, looked up)
chain: MAMQMQLEANADTSVEEESFGPQPISRLEQCGINANDVKKLEEAGFHTVEAVAYAPKKELINIKGISEAKADKILAEAAKLVPMGFTTATEFHQRRSEIIQITTGSKELDKLLQGGIETGSITEMFGEFRTGKTQICHTLAVTCQLPIDRGGGEGKAMYIDTEGTFRPERLLAVAERYGLSGSDVLDNVAYARAFNTDHQTQLLYQASAMMVESRYALLIVDSATALYRTDYSGRGELSARQMHLARFLRMLLRLADEFGVAVVITNQVVAQVDGAAMFAADPKKPIGGNIIAHASTTRLYLRKGRGETRICKIYDSPCLPEAEAMFAINADGVGDAKD
notes: RAD51, human; source: E. coli, purified
